Key:
[1] = molecular target: GST-tagged GDP-loaded WT KRAS (amino acids 1-188) (Homo sapiens, UniProt P01116); assay: KRAS WT probe displacement assay (run with the KRAS G12D assay, TR-FRET); type: binding; conditions: Table 5; WT KRAS 3 nM, biotinylated probe 1 60 nM
[2] = molecular target: GST-tagged GDP-loaded WT KRAS (amino acids 1-169) (Homo sapiens, UniProt P01116); assay: KRAS WT probe displacement assay (run with the KRAS G12V assay, TR-FRET); type: binding; conditions: Table 4; WT KRAS 3 nM, biotinylated probe 1 60 nM

CNCCN1c2nc(OC[C@@]34CCCN3C[C@H](F)C4)nc3c(F)c(-c4cc(N)cc(Cl)c4C(F)(F)F)nc(c23)O[C@H]2CCCC[C@@H]21 [Example 48, 3-chloro-5-((7aS,11aS)-4-fluoro-2-(((2R,7aS)-2-fluorotetrahydro-1H-pyrrolizin-7a(5H)-yl)methoxy)-12-(2-(methylamino)ethyl)-7a, 8,10,11,11a, 12-hexahydro-9H-7-oxa-1,3,6,12-tetraazapleiaden-5-yl)-4-(trifluoromethyl)aniline]
IC50 [1]: 28 nM

CN1c2nc(OC[C@@]34CCCN3C[C@H](F)C4)nc3c(F)c(-c4cc(N)cc(Cl)c4C(F)(F)F)nc(c23)OCCC12COC2 [Example 30, 3-chloro-5-(4-fluoro-2-(((2R,7aS)-2-fluorotetrahydro-1H-pyrrolizin-7a(5H)-yl)methoxy)-11-methyl-8,9-dihydro-11H-7-oxa-1,3,6,11-tetraazaspiro[cycloocta[de]naphthalene-10,3′-oxetan]-1(11a), 2,3a, 3a^1(6a), 5-pentaen-5-yl)-4-(trifluoromethyl)aniline]
IC50 [2]: 1.1 nM
IC50 [1]: 1 nM

C=C1CN2CCC[C@@]2(COc2nc3c4c(nc(-c5cc(N)cc(Cl)c5C(F)(F)F)c(F)c4n2)O[C@H]2COCC[C@@H]2N3C)C1 [Example 62, 3-chloro-5-((7aR,11aS)-4-fluoro-12-methyl-2-(((S)-2-methylenetetrahydro-1H-pyrrolizin-7a(5H)-yl)methoxy)-7a, 8,10,11,11a, 12-hexahydro-7,9-dioxa-1,3,6,12-tetraazapleiaden-5-yl)-4-(trifluoromethyl)aniline]
IC50 [2]: 0.54 nM
IC50 [1]: 0.54 nM

Cc1cc(N)cc(-c2nc3c4c(nc(OC[C@@]56CCCN5C[C@H](F)C6)nc4c2F)N(C)[C@@H]2COCC[C@H]2O3)c1C(F)(F)F [Example 61, 3-((7aR,11aR)-4-fluoro-2-(((2R,7aS)-2-fluorotetrahydro-1H-pyrrolizin-7a(5H)-yl)methoxy)-12-methyl-7a, 8,11a, 12-tetrahydro-9H, 11H-7,10-dioxa-1,3,6,12-tetraazapleiaden-5-yl)-5-methyl-4-(trifluoromethyl)aniline]
IC50 [2]: 0.81 nM
IC50 [1]: 0.81 nM

CNCCN1CCCOc2nc(-c3cc(N)cc(Cl)c3C(F)(F)F)c(F)c3nc(OC[C@@]45CCCN4C[C@H](F)C5)nc1c23 [Example 17, 3-chloro-5-(4-fluoro-2-(((2R,7aS)-2-fluorotetrahydro-1H-pyrrolizin-7a(5H)-yl)methoxy)-11-(2-(methylamino)ethyl)-8,9,10,11-tetrahydro-7-oxa-1,3,6,11-tetraazacycloocta[de]naphthalen-5-yl)-4-(trifluoromethyl)aniline]
IC50 [1]: 188 nM

CN1c2nc(OC[C@@]34CCCN3C[C@H](F)C4)nc3c(F)c(-c4cc(N)cc(Cl)c4C(F)(F)F)nc(c23)OC[C@@H]2COC[C@H]21 (single isomer, unassigned) [Example 68 Isomer 2]
IC50 [2]: 0.69 nM
IC50 [1]: 0.69 nM

CNCCN1c2nc(OC[C@@]34CCCN3C[C@H](F)C4)nc3c(F)c(-c4cc(N)cc(Cl)c4C(F)(F)F)nc(c23)OCCC12CC2 [Example 42, 3-chloro-5-(4-fluoro-2-(((2R,7aS)-2-fluorotetrahydro-1H-pyrrolizin-7a(5H)-yl)methoxy)-11-(2-(methylamino)ethyl)-8,9-dihydro-11H-7-oxa-1,3,6,11-tetraazaspiro[cycloocta[de]naphthalene-10,1′-cyclopropan]-1(11a), 2,3a, 4,6-pentaen-5-yl)-4-(trifluoromethyl)aniline]
IC50 [1]: 1.4 nM

CN1CCCOc2cc(-c3ccc(F)c4sc(N)c(C#N)c34)c(F)c3nc(OC[C@@]45CCCN4C[C@H](F)C5)nc1c23 [Example 2, 2-amino-7-fluoro-4-(11-fluoro-2-(((2R,7aS)-2-fluorotetrahydro-1H-pyrrolizin-7a(5H)-yl)methoxy)-4-methyl-4.5,6,7-tetrahydro-[1,5]oxazocino[4,3,2-de]quinazolin-10-yl)benzo[b]thiophene-3-carbonitrile]
IC50 [2]: 4 nM
IC50 [1]: 4 nM

CN1c2nc(OC[C@@]34CCCN3C[C@H](F)C4)nc3c(F)c(-c4cc(N)cc(Cl)c4C(F)(F)F)nc(c23)O[C@@H]2CCOC[C@H]21 [Example 51, 3-chloro-5-((7aR,11aR)-4-fluoro-2-(((2R,7aS)-2-fluorotetrahydro-1H-pyrrolizin-7a(5H)-yl)methoxy)-12-methyl-7a, 8,11a, 12-tetrahydro-9H, 11H-7,10-dioxa-1,3,6,12-tetraazapleiaden-5-yl)-4-(trifluoromethyl)aniline]
IC50 [2]: 0.67 nM
IC50 [1]: 0.67 nM

CNCCN1c2nc(OC[C@@]34CCCN3C[C@H](F)C4)nc3c(F)c(-c4cc(N)cc(Cl)c4C(F)(F)F)nc(c23)OCCC1C (stereo partly drawn) [Example 20, 3-chloro-5-(4-fluoro-2-(((2R,7aS)-2-fluorotetrahydro-1H-pyrrolizin-7a(5H)-yl)methoxy)-10-methyl-11-(2-(methylamino)ethyl)-8,9,10,11-tetrahydro-7-oxa-1,3,6,11-tetraazacycloocta[de]naphthalen-5-yl)-4-(trifluoromethyl)aniline]
IC50 [1]: 13 nM

CCN1c2nc(OC[C@@]34CCCN3C[C@H](F)C4)nc3c(F)c(-c4cc(N)cc(Cl)c4C(F)(F)F)nc(c23)OCCC12COC2 [Example 35, 3-chloro-5-(11-ethyl-4-fluoro-2-(((2R,7aS)-2-fluorotetrahydro-1H-pyrrolizin-7a(5H)-yl)methoxy)-8,9-dihydro-11H-7-oxa-1,3,6,11-tetraazaspiro[cycloocta[de]naphthalene-10,3′-oxetan]-1(11a), 2,3a, 3a^1(6a), 5-pentaen-5-yl)-4-(trifluoromethyl)aniline]
IC50 [2]: 0.76 nM
IC50 [1]: 0.76 nM

CC(CN(C)C)N1CCCOc2nc(-c3cc(N)cc(Cl)c3C(F)(F)F)c(F)c3nc(OC[C@@]45CCCN4C[C@H](F)C5)nc1c23 (stereo partly drawn) [Example 40, 3-chloro-5-(11-(1-(dimethylamino)propan-2-yl)-4-fluoro-2-(((2R,7aS)-2-fluorotetrahydro-1H-pyrrolizin-7a(5H)-yl)methoxy)-8,9,10,11-tetrahydro-7-oxa-1,3,6,11-tetraazacycloocta[de]naphthalen-5-yl)-4-(trifluoromethyl)aniline]
IC50 [1]: 166 nM

CN(C)CCN1c2nc(OC[C@@]34CCCN3C[C@H](F)C4)nc3c(F)c(-c4cc(N)cc(Cl)c4C(F)(F)F)nc(c23)OCCC12CC2 [Example 43, 3-chloro-5-(11-(2-(dimethylamino)ethyl)-4-fluoro-2-(((2R,7aS)-2-fluorotetrahydro-1H-pyrrolizin-7a(5H)-yl)methoxy)-8,9-dihydro-11H-7-oxa-1,3,6,11-tetraazaspiro[cycloocta[de]naphthalene-10,1′-cyclopropan]-1(11a), 2,3a, 4,6-pentaen-5-yl)-4-(trifluoromethyl)aniline]
IC50 [1]: 2.1 nM

CN1c2nc(OC[C@@]34CCCN3C[C@H](F)C4)nc3c(F)c(-c4cc(N)cc(Cl)c4C(F)(F)F)nc(c23)OCC2CNCC21 (stereo partly drawn) [Example 27, 3-chloro-5-(4-fluoro-2-(((2R,7aS)-2-fluorotetrahydro-1H-pyrrolizin-7a(5H)-yl)methoxy)-12-methyl-8a, 9,10,11,11a, 12-hexahydro-8H-7-oxa-1,3,6,10,12-pentaazacyclopenta[5,6]cycloocta[1,2,3-de]naphthalen-5-yl)-4-(trifluoromethyl)aniline]
IC50 [1]: 2.9 nM

CNCC(C)N1c2nc(OC[C@@]34CCCN3C[C@H](F)C4)nc3c(F)c(-c4cc(N)cc(Cl)c4C(F)(F)F)nc(c23)OCC12CCC2 (stereo partly drawn) [Example 38, 3-chloro-5-(4′-fluoro-2′-(((2R,7aS)-2-fluorotetrahydro-1H-pyrrolizin-7a(5H)-yl)methoxy)-10′-(1-(methylamino)propan-2-yl)-8′H, 10′H-7′-oxa-1′,3′,6′,10′-tetraazaspiro[cyclobutane-1,9′-cyclohepta[de]naphthalen]-1′(10a′), 2′,3a′, 3 al′(6a′), 5′-pentaen-5′-yl)-4-(trifluoromethyl)aniline]
IC50 [1]: 10 nM

Nc1cc(Cl)c(C(F)(F)F)c(-c2nc3c4c(nc(OC[C@@]56CCCN5C[C@H](F)C6)nc4c2F)N([C@@H]2CCNC2)CCCO3)c1 [Example 41, 3-chloro-5-(4-fluoro-2-(((2R,7aS)-2-fluorotetrahydro-1H-pyrrolizin-7a(5H)-yl)methoxy)-11-((R)-pyrrolidin-3-yl)-8,9,10,11-tetrahydro-7-oxa-1,3,6,11-tetraazacycloocta[de]naphthalen-5-yl)-4-(trifluoromethyl)aniline]
IC50 [1]: 270 nM

CNCC(C)N1CCCOc2nc(-c3cc(N)cc(Cl)c3C(F)(F)F)c(F)c3nc(OC[C@@]45CCCN4C[C@H](F)C5)nc1c23 (stereo partly drawn) [Example 39, 3-chloro-5-(4-fluoro-2-(((2R,7aS)-2-fluorotetrahydro-1H-pyrrolizin-7a(5H)-yl)methoxy)-11-(1-(methylamino)propan-2-yl)-8,9,10,11-tetrahydro-7-oxa-1,3,6,11-tetraazacycloocta[de]naphthalen-5-yl)-4-(trifluoromethyl)aniline]
IC50 [1]: 170 nM

CNCCN1c2nc(OC[C@@]34CCCN3C[C@H](F)C4)nc3c(F)c(-c4cc(N)cc(Cl)c4C(F)(F)F)nc(c23)OCC12CCC2 [Example 36, 3-chloro-5-(4′-fluoro-2′-(((2R,7aS)-2-fluorotetrahydro-1H-pyrrolizin-7a(5H)-yl)methoxy)-10′-(2-(methylamino)ethyl)-8′H, 10′H-7′-oxa-1′,3′,6′,10′-tetraazaspiro[cyclobutane-1,9′-cyclohepta[de]naphthalen]-1′(10a′), 2′0.3a′, 3 al′(6a′), 5′-pentaen-5′-yl)-4-(trifluoromethyl)aniline]
IC50 [1]: 30 nM

CN(C)CCN1c2nc(OC[C@@]34CCCN3C[C@H](F)C4)nc3c(F)c(-c4cc(N)cc(Cl)c4C(F)(F)F)nc(c23)OCC12CCC2 [Example 37, 3-chloro-5-(10′-(2-(dimethylamino)ethyl)-4′-fluoro-2′-(((2R,7aS)-2-fluorotetrahydro-1H-pyrrolizin-7a(5H)-yl)methoxy)-8′H, 10′H-7′-oxa-1′,3′,6′,10′-tetraazaspiro[cyclobutane-1,9′-cyclohepta[de]naphthalen]-1′(10a′), 2′,3a′, 3 al′(6a′), 5′-pentaen-5′-yl)-4-(trifluoromethyl)aniline]
IC50 [1]: 8.7 nM

Source: patent US20240262848A1, “HETEROCYCLIC COMPOUNDS, COMPOSITIONS THEREOF, AND METHODS OF TREATMENT THEREWITH” (BeiGene, Ltd., priority 2022, published 2024)
